# What was measured:
# Type in all cases: in vivo
# [1] = tested on: Blumeria graminis f sp. hordei; assay: Test Example D: Powdery mildew on barley; conditions: 250 ppm spray, preventive; control value class
# Source text: [Test Example D] Powdery Mildew on Barley
# After the sprayed dilutions were dried, conidia of Blumeria graminis f sp. hordei were inoculated to the plants by shaking off.
# Botrytis cinerea = assay: Test Example B: Gray mold on tomato; conditions: 250 ppm spray, preventive; control value class
# Source text: [Test Example B] Gray Mold on Tomato
# Seeds of a test plant (tomato variety: Oogata Fukuju) were planted followed by cultivating until three to five first leaves (true leaves) appeared.
# Puccinia recondita = assay: Test Example E: Brown rust on wheat; conditions: 250 ppm spray, preventive; control value class
# Source text: [Test Example E] Brown Rust on Wheat
# Plasmopara viticola = assay: Test Example G: Downy mildew on vine; conditions: 250 ppm spray (2.5 ml/pot), preventive; 7-10 days after inoculation; control value class
# Source text: [Test Example G] Downy Mildew on Vine
# Seeds of a test plant (grape variety: Neomuscat) were planted followed by cultivating until three to four first leaves appeared. […] After the sprayed dilutions were dried, a zoosporangia suspension (1-2×10^4 zoosporangia/ml) of Plasmopara viticola was inoculated to the plants by spraying.
# Alternaia brassicicola = assay: Test Example C: Alternaria sooty spot on cabbage; conditions: 250 ppm spray, preventive; control value class
# Source text: [Test Example C] Alternaria Sooty Spot on Cabbage
# Seeds of a test plant (cabbage variety: Shikidori) were planted followed by cultivating until the cotyledons extended.
Structure (SMILES),Test D control value (powdery mildew on barley) [1],Test B control value (gray mold on tomato) (Botrytis cinerea),Test E control value (brown rust on wheat) (Puccinia recondita),Test G control value (downy mildew on vine) (Plasmopara viticola),Test C control value (Alternaria sooty spot on cabbage) (Alternaia brassicicola)
CCN1C(=O)CCC(c2cc(OC)cc(OC)c2)=C1c1c(F)cc(Br)cc1F [Compound 186],L (L shows 50% or less of control values),H (H shows more than 50% of control values),H (H shows more than 50% of control values),H (H shows more than 50% of control values),H (H shows more than 50% of control values)
COc1cc(OC)cc(C2=C(c3c(F)cc(Br)cc3F)N(C)C(=O)CC2)c1 [Compound 187],L (L shows 50% or less of control values),H (H shows more than 50% of control values),H (H shows more than 50% of control values),H (H shows more than 50% of control values),H (H shows more than 50% of control values)
Cn1c(-c2c(F)cccc2F)c(-c2cccc(Cl)c2)ccc1=O [Compound 188],H (H shows more than 50% of control values),H (H shows more than 50% of control values),H (H shows more than 50% of control values),H (H shows more than 50% of control values),H (H shows more than 50% of control values)
Cn1c(-c2c(F)cccc2F)c(-c2cccc(Cl)c2)cc(Cl)c1=O [Compound 189],H (H shows more than 50% of control values),H (H shows more than 50% of control values),H (H shows more than 50% of control values),H (H shows more than 50% of control values),H (H shows more than 50% of control values)
Cn1c(-c2c(F)cccc2F)c(-c2cccc(Cl)c2)cc(Br)c1=O [Compound 190],H (H shows more than 50% of control values),H (H shows more than 50% of control values),H (H shows more than 50% of control values),H (H shows more than 50% of control values),H (H shows more than 50% of control values)
CN1C(=O)CCC(c2cccc(Cl)c2)=C1c1c(F)cccc1F [Compound 191],H (H shows more than 50% of control values),L (L shows 50% or less of control values),H (H shows more than 50% of control values),L (L shows 50% or less of control values),H (H shows more than 50% of control values)
"COc1ccc(Cl)c(C2=C(c3c(F)cccc3F)N(CC(F)F)C(=O)CC2)c1 [Compound 192, 5-(2-chloro-5-methoxyphenyl)-1-(2,2-difluoroethyl)-6-(2,6-difluorophenyl)-3,4-dihydropyridine-2(1H)-one]",H (H shows more than 50% of control values),H (H shows more than 50% of control values),H (H shows more than 50% of control values),L (L shows 50% or less of control values),L (L shows 50% or less of control values)
CCn1c(-c2c(F)cccc2F)c(-c2cc(OCCOC)ccc2Cl)ccc1=O [Compound 193],H (H shows more than 50% of control values),H (H shows more than 50% of control values),H (H shows more than 50% of control values),H (H shows more than 50% of control values),H (H shows more than 50% of control values)
"COc1ccc(Cl)c(-c2ccc(=O)n(CC(F)F)c2-c2c(F)cccc2F)c1 [Compound 194, 5-(2-chloro-5-methoxyphenyl)-1-(2,2-difluoroethyl)-6-(2,6-difluorophenyl)pyridine-2(1H)-one]",H (H shows more than 50% of control values),H (H shows more than 50% of control values),H (H shows more than 50% of control values),L (L shows 50% or less of control values),H (H shows more than 50% of control values)
CCn1c(-c2c(F)cccc2F)c(-c2cc(OCCOC)ccc2Cl)cc(Cl)c1=O [Compound 195],H (H shows more than 50% of control values),H (H shows more than 50% of control values),H (H shows more than 50% of control values),H (H shows more than 50% of control values),H (H shows more than 50% of control values)
CCn1c(-c2c(F)cccc2F)c(-c2cc(OCCOC)ccc2Cl)cc(Br)c1=O [Compound 196],H (H shows more than 50% of control values),H (H shows more than 50% of control values),H (H shows more than 50% of control values),H (H shows more than 50% of control values),H (H shows more than 50% of control values)
"COc1ccc(Cl)c(-c2cc(Br)c(=O)n(CC(F)F)c2-c2c(F)cccc2F)c1 [Compound 198, 3-bromo-5-(2-chloro-5-methoxyphenyl)-1-(2,2-difluoroethyl)-6-(2,6-difluorophenyl)pyridine-2(1H)-one]",H (H shows more than 50% of control values),H (H shows more than 50% of control values),H (H shows more than 50% of control values),H (H shows more than 50% of control values),H (H shows more than 50% of control values)
CCn1c(-c2c(F)cc(Br)cc2F)c(-c2cc(OC)cc(OC)c2)ccc1=O [Compound 199],L (L shows 50% or less of control values),H (H shows more than 50% of control values),H (H shows more than 50% of control values),L (L shows 50% or less of control values),H (H shows more than 50% of control values)
CCn1c(-c2c(F)cc(Br)cc2F)c(-c2cc(OC)cc(OC)c2Br)ccc1=O [Compound 200],H (H shows more than 50% of control values),H (H shows more than 50% of control values),H (H shows more than 50% of control values),H (H shows more than 50% of control values),H (H shows more than 50% of control values)
CCn1c(-c2c(F)cc(Br)cc2F)c(-c2cc(OC)cc(OC)c2Cl)ccc1=O [Compound 201],H (H shows more than 50% of control values),H (H shows more than 50% of control values),H (H shows more than 50% of control values),H (H shows more than 50% of control values),H (H shows more than 50% of control values)
CCn1c(-c2c(F)cc(Br)cc2F)c(-c2cc(OC)c(Cl)c(OC)c2)ccc1=O [Compound 202],L (L shows 50% or less of control values),H (H shows more than 50% of control values),H (H shows more than 50% of control values),H (H shows more than 50% of control values),H (H shows more than 50% of control values)
COc1cc(OC)cc(-c2ccc(=O)n(C)c2-c2c(F)cc(Br)cc2F)c1 [Compound 203],L (L shows 50% or less of control values),H (H shows more than 50% of control values),H (H shows more than 50% of control values),L (L shows 50% or less of control values),H (H shows more than 50% of control values)
COc1cc(OC)c(Br)c(-c2ccc(=O)n(C)c2-c2c(F)cc(Br)cc2F)c1 [Compound 204],H (H shows more than 50% of control values),H (H shows more than 50% of control values),H (H shows more than 50% of control values),H (H shows more than 50% of control values),H (H shows more than 50% of control values)

# Reference: patent US10299477B2 (priority 2015, dated 2019)
